The other results are listed elsewhere or left out.
What follows are sequences tested on PfAP2-HC AP2 domain (GST-tagged) (assay: gcPBM binding intensity (ln(normalized median fluorescence intensity)); higher = stronger DNA binding).
In short: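 GST-tagged P. falciparum DNA-binding domains, expressed in E. coli (about 25 μg on average), were applied for 1 h to an Agilent 4 × 180k array of primer-extended double-stranded 36-bp intergenic genomic probes plus negative controls. The binding buffer was 1× PBS with 1% milk, 0.2 mg/ml BSA, 0.5% salmon testes DNA and 0.03% Triton X-100. Bound protein was detected with Alexa488 anti-GST antibody and scanned at 488 nm. Binding intensity is the highest Masliner-normalised natural-log median intensity across replicate spots of either probe orientation.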

Row | Sequence | gcPBM binding intensity (ln)
1 | AAGGGAAATATTGAAACACACACGAACCCACGTATT [CACACA_site252] | 10
2 | ATACTAAATGAACACACACACATATATATATATAAT [CACACA_site4232] | 10.4
3 | AAATAAATATATAATACACACAAAAATATAAAATGG [CACACA_site5943] | 10.1
4 | TATAACTTTTTTATTACACACCTATGTAATATTATA [CACACA_site944] | 9.78
5 | AACAGACATAGAAACACACATACATACATACATACA [CACACA_site2479] | 9.86
6 | TAGTAACTTGTATTCACACAAATTATATTATATTAC [CACACA_site5041] | 9.7
7 | TATATAATATATAAATGTACTTTTGTCTTATATGAA [XGTACX_site7211] | 9.48
8 | ATTATTTAAATTTAACGTACGGAATAAGACATAGAT [XGTACX_site8622] | 9.79
9 | ATACTATAATATAAAACACACATATGTACCTTCTAA [CACACA_site7323] | 9.8
10 | TTCAGGTAATAACATTGTACATGTGTATCATAATTA [XGTACX_site6740] | 9.62
11 | TTTTTTTTTTTTTTTTTTTTACAGAAAAATATTAAA [CACACA_negctrl_site128] | 8.49
12 | AATCATTAAAGCATAATGTTTATGATCAATATGAAA [CACACA_negctrl_site887] | 9.54
13 | TTATTCTAAAAATATACACACAACAACAAACAAACA [CACACA_site1543] | 10.6
14 | ATGTGTTTCTTCAATTGTACTAAAAGGTATATATTG [XGTACX_site4608] | 9.63
15 | CAATATGGAAAATAAAGTACGCACACAAAAATTCTC [XGTACX_site4793] | 10
16 | TAGATAAAATGAACATGTACTCATCTTAATATATAT [XGTACX_site34] | 9.58
17 | TACACCCACATATATATACACACTTTTATTTAAATA [CACACA_site1596] | 9.96
18 | AAAAAAAATAATGTTGCACACAACAACAAACAAAAA [CACACA_site3290] | 10
19 | AATATATATATATGTGCACACATATATAATATGTAT [CACACA_site716] | 10.4
20 | TTTCATAAATAATAAAATAAAATATGAAGCAAAAGG [CACACA_negctrl_site1767] | 9.67
21 | TAATTTTTTTAAGAGAGTACATGACTCAACAGTTTA [XGTACX_site3103] | 9.27
22 | TTATATCCAACTTGAAAAAAGGTATATGTTTATATA [CACACA_negctrl_site1746] | 9.33

Row | Sequence | gcPBM binding intensity (ln)
23 | TTTTTTTTTTTTTGGAGTACATGTTTATAACATAAT [XGTACX_site1799] | 9.37
24 | TGCTCTAATTTATATACACACAAATATGTACACATA [CACACA_site7845] | 9.92
25 | ACAAACAAATAAATATGTACGAATAAATAAAATTTT [XGTACX_site4664] | 9.97
26 | TTTTTTTTCAAAAATACAAAAAAAAAAGAAAAAAAC [CACACA_negctrl_site625] | 9.49
27 | CTTTTAGAATAATCAGTGCAAAAAAAAAAAAAAAAA | 9.09
28 | GATAATACATAAATTTATAAGTGGAAGAATAAATAA [CACACA_negctrl_site698] | 9.72
29 | GAAATATTACAAAGTACATGCAACGAAAATTTCAGT [TGCATGCA_site608] | 9.77
30 | AAAAAAAAAAAAACTTGTACATGTGATATTATCTAT [XGTACX_site6169] | 9.61
31 | ATTTAATACATACATTCACACACACTAATTGTATAT [CACACA_site9361] | 10.1
32 | TTAAATGTTCTATATACATGCAATGATATGTTTCTG [TGCATGCA_site317] | 9.43
33 | TCAAAGTAGGCTTATATGCACACTTTGAAATATTAT [CACACA_site1920] | 9.49
34 | TAGTTAATATGAAAAAGTACACGTTTCAGTGAAAGT [XGTACX_site7402] | 9.8
35 | TTTAAAATAAATATTACACACAAAATATTAAAAAGC [CACACA_site2129] | 9.96
36 | ATATATACATATGGGTGTACATATGCACATATATAT [XGTACX_site8437] | 9.84
37 | ACAAAAAAAAACGTGGTGCATTAATAATATTGTATA [GTGCAC_site9469] | 9.87
38 | ATAACACAAAAAGGGGGTACAATAAAAAAAAAAAAA [XGTACX_site1652] | 9.42
39 | AATACCTATAATACAACACACAAGTAATATAAACCT [CACACA_site7661] | 10.1
40 | TATTTATATAGGTATACACACATACAAATATGTAAA [CACACA_site7705] | 9.71
41 | TCATTATATACAATATGTACATATATGTAATAAACA [XGTACX_site4611] | 9.47
42 | AGAAAGAAAGAATACACACACACATATATATATATC [CACACA_site3744] | 11.5
43 | AAAGAATTCATTATTTGTACTTAAATAAATAAATAA [XGTACX_site5932] | 9.38
44 | AAAGGATATGCTTCATATATATATTGTTATATATGT [CACACA_negctrl_site1672] | 9.58

Row | Sequence | gcPBM binding intensity (ln)
45 | AGCACACGCAGACACACACACACACGCACACGCACA [CACACA_site6306] | 11.6
46 | AAATTAATATAAATATGTACATAAATAATAAAATAT [XGTACX_site6131] | 10
47 | ATTTTTCAAACTTTAGTGCAATGAAAGAAAGAAAAA | 9.5
48 | GGAGGTTGTTATAAAAGTACAAAAAGTTGCAATTTT [XGTACX_site7351] | 9.49
49 | GTTTTCCTTCCCTTTCCCCCTCAAAAAAAGGGAACA [TGCATGCA_negctrl_site436] | 9.4
50 | AAGGAATAAAGAAGTTGTACATAATTTGTATCATCC [XGTACX_site3891] | 9.76
51 | ATAAGAAGGAACATAAATATATCATAAAAAAAAAAA [GTGCAC_negctrl_site169] | 9.52
52 | TAAAATTTTTTATTCACACAAATATAGTTATATATA [CACACA_site5348] | 9.24
53 | ATATATTTTTTTTCTTCACACACATGAATTATATAT [CACACA_site9053] | 10.3
54 | ATATATATATATATATGTACATATTATATATGAACG [XGTACX_site1585] | 9.71
55 | AATAATAGAAAAAGGTGTACTTATAAACATATACAC [XGTACX_site6921] | 9.73
56 | GTAATTATTATTAATAGTACACACTATGGCATTTCA [XGTACX_site5192] | 9.72
57 | TATATTAATAGACACACACACATATTTATATTTATA [CACACA_site6859] | 11.1
58 | TATATTTAGTAAAAAGGTACCATTCTTATTTATATT [CACACA_negctrl_site1165] | 9.58
59 | TACTGTGATAGCACCACACACGCAAAAGTGAGTATA [CACACA_site1109] | 9.71
60 | TTTCAGCCAAACGATAAACTACGACACTTGAACGAA [CACACA_negctrl_site1747] | 9.45
61 | TAAGGCCCTTTTCATCGTACAGTAAAATATAAATAA [XGTACX_site1278] | 9.3
62 | CATACTGTGATAGCACCACACACGCAAAAGAGGGTA [CACACA_site8285] | 10
63 | CAAATACATGTGTAAAGTACATATTAATAAGTCTTT [XGTACX_site6342] | 9.76
64 | GAAAATTCTTAAGGCACACACATATATAATATATAC [CACACA_site569] | 10.4
65 | AATTTAACCCATTTTATAATTATTACCACTATATAT [TGCATGCA_negctrl_site452] | 9.79
66 | ATTTTTTTTTTTATGTGTACATATATTTTTTTAATT [XGTACX_site7921] | 9.83

Row | Sequence | gcPBM binding intensity (ln)
67 | AAGAAAAAATAAACATGTACATAAATATATATATAT [XGTACX_site304] | 10.1
68 | ATTTAATTTATAAAAACACACACAGGTAAAAAGGTG [CACACA_site8306] | 10.6
69 | TGCTACTTATAAATAGAACACACATAAGTGTATTTG [CACACA_site9253] | 9.71
70 | AAGAAAAAAAAAAAAAAAAAAAAAAAAAAGGAAAAA [GTGCAC_negctrl_site174] | 9.29
71 | AAAAAAAAAAAAAAAAAAAAAAAAAAATATATATAT [CACACA_negctrl_site271] | 9.48
72 | TAAGAAAAAAAATAATGTACATATGTATTTGAGAAA [XGTACX_site3569] | 9.67
73 | TATATATATATATATTGTACTAATTGTGCAAATGAG [XGTACX_site682] | 9.63
74 | ATAAAGCCATACAATACACACATTTGACATGTCCGT [CACACA_site7523] | 9.81
75 | ATACTTCAATCTATTTGTACATATTTTTTAAAACCA [XGTACX_site2328] | 9.51
76 | GAAATTTTTAAATACAGTACACACATGGGTTTAAAT [XGTACX_site6124] | 9.93
77 | AATAATAAAAAATATACACACATATATAAATAAATA [CACACA_site6164] | 9.95
78 | ATAAATCAAAGGCACACACACAAAAAAAAAAAAAAA [CACACA_site160] | 10.4
79 | TGTTTTTTATATTACTGTACATGTTTTGGAATAATA [XGTACX_site4716] | 9.61
80 | GCGGGTTTATCTTTCGCACACCTTACATTTTAGAAT [CACACA_site2015] | 9.93
81 | AGTTTTATGTAGTGTTGTACTTTATACAAATATATT [XGTACX_site614] | 9.9
82 | ATATCACATTCCACGGTACACACTAAAAGAAAAATC [CACACA_site3611] | 9.92
83 | TATTTTTGTATATATTTATTCTTATTTTACAGGAAA [TGCATGCA_negctrl_site472] | 9.38
84 | AACAAAAATAGAAACACACATACATTGGTTTTCTTT [CACACA_site2534] | 9.84
85 | ACATTTAAGTTTAGCTGTACATATTCATCATAATTA [XGTACX_site37] | 9.6
86 | TATTCCTTCTACAATTAAATAATTATAATAAATATA [GTGCAC_negctrl_site26] | 9.15
87 | GTATCATTAAATTATTGTACATATATATATATATAT [XGTACX_site8809] | 9.84
88 | TTAATTAATAGACACACACACATATAAATATAGATT [CACACA_site7143] | 10.2
